Results: a collection of fitness landscapes (doi:10.1016/j.celrep.2020.107928)
The full ranking holds about 81,000 sequences; the median of “one-hybrid fitness for binding parS DNA” is about -0.17, and the highest 2% start at about 0.51. The list shows a part of the results.

B1: Caulobacter ParB omega fusion; a variant is named by its letters at X, in order, B8GW30 (parent)
chain: MESVVVGEPGMSEGRRGLGRGLSALLGEVDAAPAQAPGEQLGGSREAPIEILQRNPDQPRRTFREEDLEDLSNSIREKGVLQPILVRPSPDTAGEYQIVAGERAWRAAQRAGLKTVPIMVRELDDLAVLEIGIIENVQRADLNVLEEALSYKVLMEKFERTQENIAQTIGKSXSHVANXMRLLXLPDEVQSYLVSGELTAXHARAIAAAADPVALAKQIIEGGLSVRETEALARKAPNLSAGKSKGGRPPRVKDTDTQALESDLSSVLGLDVSIDHRGSTGTLTITYATLEQLDDLCNRLTRGI

Variants of: B1
Assay: one-hybrid fitness for binding parS DNA (scaled: cognate 1, non-cognate 0); higher = stronger binding
Conditions: with parS DNA site
Summary of the method: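 Caulobacter ParB libraries with four specificity codons randomised were screened by bacterial one-hybrid selection in the E. coli USO strain, using a HIS3 reporter whose site lies 19 bp from the promoter. Selection ran for 48 hours at 37°C on M9 lacking histidine, with 0.1 mM IPTG and 5 mM 3-AT. Plasmids were Illumina-sequenced before and after selection, three replicate libraries were pooled, and variants with under 10 reads were dropped. Fitness is the log change in each variant's read ratio to wild type, rescaled against the cognate and non-cognate sites.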

GQYE and DYER cannot be ordered by “one-hybrid fitness for binding parS DNA” value: ≤ 0.2 for the first, ≤ 0.2 for the second.

IGEW and INRN cannot be ordered by “one-hybrid fitness for binding parS DNA” value: ≤ 0.2 for the first, ≤ 0.2 for the second.

CLQP and TYYT cannot be ordered by “one-hybrid fitness for binding parS DNA” value: ≤ 0.2 for the first, ≤ 0.2 for the second.

LAWH and ESAK cannot be ordered by “one-hybrid fitness for binding parS DNA” value: ≤ 0.2 for the first, ≤ 0.2 for the second.

ESHG and RLGK cannot be ordered by “one-hybrid fitness for binding parS DNA” value: ≤ 0.2 for the first, ≤ 0.2 for the second.

TNNI and FKID cannot be ordered by “one-hybrid fitness for binding parS DNA” value: ≤ 0.2 for the first, ≤ 0.2 for the second.

QFCR and CRIS cannot be ordered by “one-hybrid fitness for binding parS DNA” value: ≤ 0.2 for the first, ≤ 0.2 for the second.

DIYT and SNPV cannot be ordered by “one-hybrid fitness for binding parS DNA” value: ≤ 0.2 for the first, ≤ 0.2 for the second.

SMSF and CRYA cannot be ordered by “one-hybrid fitness for binding parS DNA” value: ≤ 0.2 for the first, ≤ 0.2 for the second.

PELC and RQAR cannot be ordered by “one-hybrid fitness for binding parS DNA” value: ≤ 0.2 for the first, ≤ 0.2 for the second.

ALHK and VWSY cannot be ordered by “one-hybrid fitness for binding parS DNA” value: ≤ 0.2 for the first, ≤ 0.2 for the second.

PDTA and TLLT cannot be ordered by “one-hybrid fitness for binding parS DNA” value: ≤ 0.2 for the first, ≤ 0.2 for the second.

GSWK and FPMN cannot be ordered by “one-hybrid fitness for binding parS DNA” value: ≤ 0.2 for the first, ≤ 0.2 for the second.

AIDM and DRAS cannot be ordered by “one-hybrid fitness for binding parS DNA” value: ≤ 0.2 for the first, ≤ 0.2 for the second.

NLCT and LHWH cannot be ordered by “one-hybrid fitness for binding parS DNA” value: ≤ 0.2 for the first, ≤ 0.2 for the second.

Going from NNHN to RRDY, the “one-hybrid fitness for binding parS DNA” value rises from ≤ 0.2 to 0.289.

TWFG and ATCI cannot be ordered by “one-hybrid fitness for binding parS DNA” value: ≤ 0.2 for the first, ≤ 0.2 for the second.

QQVC and ACNF cannot be ordered by “one-hybrid fitness for binding parS DNA” value: ≤ 0.2 for the first, ≤ 0.2 for the second.

SSCY and QQAG cannot be ordered by “one-hybrid fitness for binding parS DNA” value: ≤ 0.2 for the first, ≤ 0.2 for the second.

ELES and LSCK cannot be ordered by “one-hybrid fitness for binding parS DNA” value: ≤ 0.2 for the first, ≤ 0.2 for the second.

NAEH and IPHR cannot be ordered by “one-hybrid fitness for binding parS DNA” value: ≤ 0.2 for the first, ≤ 0.2 for the second.

Going from RCDN to RYDK, the “one-hybrid fitness for binding parS DNA” value falls from 0.376 to ≤ 0.2.

KLHR and YYGG cannot be ordered by “one-hybrid fitness for binding parS DNA” value: ≤ 0.2 for the first, ≤ 0.2 for the second.

SKND and MATS cannot be ordered by “one-hybrid fitness for binding parS DNA” value: ≤ 0.2 for the first, ≤ 0.2 for the second.

Compared with YVIP, MFHG is lower in “one-hybrid fitness for binding parS DNA” value: 0.312 for the first, ≤ 0.2 for the second.

EYGS and QEYD cannot be ordered by “one-hybrid fitness for binding parS DNA” value: ≤ 0.2 for the first, ≤ 0.2 for the second.

DAVD and TYYG cannot be ordered by “one-hybrid fitness for binding parS DNA” value: ≤ 0.2 for the first, ≤ 0.2 for the second.

PMAY and HSAR cannot be ordered by “one-hybrid fitness for binding parS DNA” value: ≤ 0.2 for the first, ≤ 0.2 for the second.

IMVQ and TEGC cannot be ordered by “one-hybrid fitness for binding parS DNA” value: ≤ 0.2 for the first, ≤ 0.2 for the second.

PPGP and QMAF cannot be ordered by “one-hybrid fitness for binding parS DNA” value: ≤ 0.2 for the first, ≤ 0.2 for the second.

Going from TQGP to RFRS, the “one-hybrid fitness for binding parS DNA” value rises from ≤ 0.2 to 0.954.

PQNV and RDHL cannot be ordered by “one-hybrid fitness for binding parS DNA” value: ≤ 0.2 for the first, ≤ 0.2 for the second.

DACY and SRLR cannot be ordered by “one-hybrid fitness for binding parS DNA” value: ≤ 0.2 for the first, ≤ 0.2 for the second.

PHCG and PAEL cannot be ordered by “one-hybrid fitness for binding parS DNA” value: ≤ 0.2 for the first, ≤ 0.2 for the second.

HVVK and SFHL cannot be ordered by “one-hybrid fitness for binding parS DNA” value: ≤ 0.2 for the first, ≤ 0.2 for the second.

MAWS and FYII cannot be ordered by “one-hybrid fitness for binding parS DNA” value: ≤ 0.2 for the first, ≤ 0.2 for the second.

LQRI and PKRR cannot be ordered by “one-hybrid fitness for binding parS DNA” value: ≤ 0.2 for the first, ≤ 0.2 for the second.

EMLT and MRSM cannot be ordered by “one-hybrid fitness for binding parS DNA” value: ≤ 0.2 for the first, ≤ 0.2 for the second.

KYAL and DVHT cannot be ordered by “one-hybrid fitness for binding parS DNA” value: ≤ 0.2 for the first, ≤ 0.2 for the second.

SMAF and LKHA cannot be ordered by “one-hybrid fitness for binding parS DNA” value: ≤ 0.2 for the first, ≤ 0.2 for the second.

SDVF and RIRL cannot be ordered by “one-hybrid fitness for binding parS DNA” value: ≤ 0.2 for the first, ≤ 0.2 for the second.

VAYI and RTTE cannot be ordered by “one-hybrid fitness for binding parS DNA” value: ≤ 0.2 for the first, ≤ 0.2 for the second.

GSHM and QVIM cannot be ordered by “one-hybrid fitness for binding parS DNA” value: ≤ 0.2 for the first, ≤ 0.2 for the second.

RFHR and PSWV cannot be ordered by “one-hybrid fitness for binding parS DNA” value: ≤ 0.2 for the first, ≤ 0.2 for the second.

KSQG and DDQR cannot be ordered by “one-hybrid fitness for binding parS DNA” value: ≤ 0.2 for the first, ≤ 0.2 for the second.

IDCL and DVPR cannot be ordered by “one-hybrid fitness for binding parS DNA” value: ≤ 0.2 for the first, ≤ 0.2 for the second.

TYHG and PLPI cannot be ordered by “one-hybrid fitness for binding parS DNA” value: ≤ 0.2 for the first, ≤ 0.2 for the second.

PMHQ and ANTA cannot be ordered by “one-hybrid fitness for binding parS DNA” value: ≤ 0.2 for the first, ≤ 0.2 for the second.

HTWT and AAGR cannot be ordered by “one-hybrid fitness for binding parS DNA” value: ≤ 0.2 for the first, ≤ 0.2 for the second.

EPAF and GVEF cannot be ordered by “one-hybrid fitness for binding parS DNA” value: ≤ 0.2 for the first, ≤ 0.2 for the second.

MMVC and NAVW cannot be ordered by “one-hybrid fitness for binding parS DNA” value: ≤ 0.2 for the first, ≤ 0.2 for the second.

QRMS and PAVF cannot be ordered by “one-hybrid fitness for binding parS DNA” value: ≤ 0.2 for the first, ≤ 0.2 for the second.

AIRW and TGPC cannot be ordered by “one-hybrid fitness for binding parS DNA” value: ≤ 0.2 for the first, ≤ 0.2 for the second.

NKRT and SITP cannot be ordered by “one-hybrid fitness for binding parS DNA” value: ≤ 0.2 for the first, ≤ 0.2 for the second.

EHMG and SPLL cannot be ordered by “one-hybrid fitness for binding parS DNA” value: ≤ 0.2 for the first, ≤ 0.2 for the second.

PLAC and LSGK cannot be ordered by “one-hybrid fitness for binding parS DNA” value: ≤ 0.2 for the first, ≤ 0.2 for the second.

RCRK and WDCV cannot be ordered by “one-hybrid fitness for binding parS DNA” value: ≤ 0.2 for the first, ≤ 0.2 for the second.

TGRD and NAEL cannot be ordered by “one-hybrid fitness for binding parS DNA” value: ≤ 0.2 for the first, ≤ 0.2 for the second.

IYRT and LIRE cannot be ordered by “one-hybrid fitness for binding parS DNA” value: ≤ 0.2 for the first, ≤ 0.2 for the second.

SSLS and EHGG cannot be ordered by “one-hybrid fitness for binding parS DNA” value: ≤ 0.2 for the first, ≤ 0.2 for the second.

LMIE and KDYS cannot be ordered by “one-hybrid fitness for binding parS DNA” value: ≤ 0.2 for the first, ≤ 0.2 for the second.

Going from PTQM to RIQS, the “one-hybrid fitness for binding parS DNA” value rises from ≤ 0.2 to 0.99.

QRLI and DSAI cannot be ordered by “one-hybrid fitness for binding parS DNA” value: ≤ 0.2 for the first, ≤ 0.2 for the second.

AMLL and EHPD cannot be ordered by “one-hybrid fitness for binding parS DNA” value: ≤ 0.2 for the first, ≤ 0.2 for the second.

CSSK and MCDC cannot be ordered by “one-hybrid fitness for binding parS DNA” value: ≤ 0.2 for the first, ≤ 0.2 for the second.

RMRP and QQNV cannot be ordered by “one-hybrid fitness for binding parS DNA” value: ≤ 0.2 for the first, ≤ 0.2 for the second.

Compared with VCAS, DRLH is higher in “one-hybrid fitness for binding parS DNA” value: ≤ 0.2 for the first, 0.254 for the second.

PGVL and DLAS cannot be ordered by “one-hybrid fitness for binding parS DNA” value: ≤ 0.2 for the first, ≤ 0.2 for the second.

QINI and QVHL cannot be ordered by “one-hybrid fitness for binding parS DNA” value: ≤ 0.2 for the first, ≤ 0.2 for the second.

TAGE and NGNG cannot be ordered by “one-hybrid fitness for binding parS DNA” value: ≤ 0.2 for the first, ≤ 0.2 for the second.

THDS and CYRH cannot be ordered by “one-hybrid fitness for binding parS DNA” value: ≤ 0.2 for the first, ≤ 0.2 for the second.

Compared with RRNC, HLSR is lower in “one-hybrid fitness for binding parS DNA” value: 0.615 for the first, ≤ 0.2 for the second.

RDLL and GRSY cannot be ordered by “one-hybrid fitness for binding parS DNA” value: ≤ 0.2 for the first, ≤ 0.2 for the second.

QCRF and LSND cannot be ordered by “one-hybrid fitness for binding parS DNA” value: ≤ 0.2 for the first, ≤ 0.2 for the second.

GFAL and DKGD cannot be ordered by “one-hybrid fitness for binding parS DNA” value: ≤ 0.2 for the first, ≤ 0.2 for the second.

GRPT and YRPD cannot be ordered by “one-hybrid fitness for binding parS DNA” value: ≤ 0.2 for the first, ≤ 0.2 for the second.

In the case of TFHV, the “one-hybrid fitness for binding parS DNA” value is reported as ≤ 0.2.
